# According to paper PMC6249397:
# Sequences of proteins named here, by UniProt entry; tags and fusion partners are left off.
# UniProt Q10471: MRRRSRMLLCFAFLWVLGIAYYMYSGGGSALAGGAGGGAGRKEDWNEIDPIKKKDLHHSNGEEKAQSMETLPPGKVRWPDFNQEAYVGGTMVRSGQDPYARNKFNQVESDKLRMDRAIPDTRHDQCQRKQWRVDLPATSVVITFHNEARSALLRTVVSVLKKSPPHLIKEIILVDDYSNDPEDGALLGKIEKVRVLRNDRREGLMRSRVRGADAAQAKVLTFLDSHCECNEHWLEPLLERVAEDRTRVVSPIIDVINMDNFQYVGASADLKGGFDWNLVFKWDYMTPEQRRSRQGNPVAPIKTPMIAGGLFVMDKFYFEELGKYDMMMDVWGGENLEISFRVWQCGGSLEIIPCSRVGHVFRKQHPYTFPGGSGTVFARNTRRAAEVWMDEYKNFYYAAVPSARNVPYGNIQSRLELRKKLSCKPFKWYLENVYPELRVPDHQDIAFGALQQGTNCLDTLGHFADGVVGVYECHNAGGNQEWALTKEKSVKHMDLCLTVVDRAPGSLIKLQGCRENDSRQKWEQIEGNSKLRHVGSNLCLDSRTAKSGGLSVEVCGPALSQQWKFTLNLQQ
# UniProt Q6ZNE5: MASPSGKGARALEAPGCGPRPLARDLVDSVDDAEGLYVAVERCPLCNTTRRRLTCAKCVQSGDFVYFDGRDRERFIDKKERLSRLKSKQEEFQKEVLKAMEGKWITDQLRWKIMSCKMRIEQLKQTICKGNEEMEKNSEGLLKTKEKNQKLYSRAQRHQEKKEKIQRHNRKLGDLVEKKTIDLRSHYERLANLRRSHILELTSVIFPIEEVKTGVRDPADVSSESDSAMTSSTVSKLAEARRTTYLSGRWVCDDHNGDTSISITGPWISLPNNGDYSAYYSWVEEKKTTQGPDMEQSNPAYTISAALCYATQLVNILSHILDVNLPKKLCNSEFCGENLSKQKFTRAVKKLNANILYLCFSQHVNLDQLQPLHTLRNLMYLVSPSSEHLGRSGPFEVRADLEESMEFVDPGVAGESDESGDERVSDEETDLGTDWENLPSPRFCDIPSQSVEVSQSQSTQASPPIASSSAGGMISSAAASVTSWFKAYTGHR
# Where two headings read alike, the source gives them in different places. Results are given in words; binding and its absence hold for the method and conditions named. Binding seen in cells or lysates may run through a third protein. Some results given as binding are weak or reduced against the parent protein; the word gives no strength. Tags and fused reporters may be left off the sequences shown.
# T1: Myc-tagged PAQR3 (UniProt Q6TCH7)
# T1 sequence: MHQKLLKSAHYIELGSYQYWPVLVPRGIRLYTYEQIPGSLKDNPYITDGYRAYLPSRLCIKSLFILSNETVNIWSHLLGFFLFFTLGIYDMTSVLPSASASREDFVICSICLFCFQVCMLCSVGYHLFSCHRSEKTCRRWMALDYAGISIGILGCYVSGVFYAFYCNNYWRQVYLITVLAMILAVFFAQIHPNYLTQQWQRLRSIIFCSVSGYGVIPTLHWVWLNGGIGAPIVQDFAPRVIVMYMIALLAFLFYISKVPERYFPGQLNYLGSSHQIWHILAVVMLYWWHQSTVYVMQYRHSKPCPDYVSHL
# T2: PAQR3 with deletion of N-terminal 1-70 amino acids (UniProt Q6TCH7)
# T2 sequence: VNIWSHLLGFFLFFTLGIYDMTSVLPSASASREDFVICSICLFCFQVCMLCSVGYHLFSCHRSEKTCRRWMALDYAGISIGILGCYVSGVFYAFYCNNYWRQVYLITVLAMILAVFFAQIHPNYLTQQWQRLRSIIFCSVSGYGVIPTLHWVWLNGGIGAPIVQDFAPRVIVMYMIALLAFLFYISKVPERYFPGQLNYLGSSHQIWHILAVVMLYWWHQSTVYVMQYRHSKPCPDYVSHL
# T3: GST-fused N-terminal end of PAQR3 (1-71 aa) (UniProt Q6TCH7)
# T3 sequence: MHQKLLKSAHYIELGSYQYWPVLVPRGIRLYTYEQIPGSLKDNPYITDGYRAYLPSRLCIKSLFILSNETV
# What was measured:
# Myc-tagged PAQR3 [1] = target: T1, Myc-tagged PAQR3; assay: co-IP; HEK293T cells transiently co-transfected with both tagged partners; 24 hr after transfection the cell lysate was used in IP and IB with the antibodies as indicated
# Myc-tagged PAQR3 [2] = target: T1, Myc-tagged PAQR3; assay: as above; remark: listed apart in the source
# [3] = target: T2, PAQR3 with deletion of N-terminal 1-70 amino acids; assay: as above
# [4] = target: T3, GST-fused N-terminal end of PAQR3 (1-71 aa); assay: pull-down; GST pull-down with GST-fused PAQR3 (1-71 aa) or GST as bait (Figure S3); source of the preys not shown
Molecule,binding (Myc-tagged PAQR3 [2]),other results
GFP-fused GalNAc-T2 (from UniProt Q10471 1-571) (enzyme),–,binding (Myc-tagged PAQR3 [1]): no binding
GFP-fused ATG14L (from UniProt Q6ZNE5 1-492),–,binding (Myc-tagged PAQR3 [1]): binds
"FLAG-tagged Sec31A (protein, UniProt O94979 1-1220) MKLKEVDRTAMQAWSPAQNHPIYLATGTSAQQLDATFSTNASLEIFELDLSDPSLDMKSCATFSSSHRYHKLIWGPYKMDSKGDVSGVLIAGGENGNIILYDPSKIIAGDKEVVIAQNDKHTGPVRALDVNIFQTNLVASGANESEIYIWDLNNFATPMTPGAKTQPPEDISCIAWNRQVQHILASASPSGRATVWDLRKNEPIIKVSDHSNRMHCSGLAWHPDVATQMVLASEDDRLPVIQMWDLRFASSPLRVLENHARGILAIAWSMADPELLLSCGKDAKILCSNPNTGEVLYELPTNTQWCFDIQWCPRNPAVLSAASFDGRISVYSIMGGSTDGLRQKQVDKLSSSFGNLDPFGTGQPLPPLQIPQQTAQHSIVLPLKKPPKWIRRPVGASFSFGGKLVTFENVRMPSHQGAEQQQQQHHVFISQVVTEKEFLSRSDQLQQAVQSQGFINYCQKKIDASQTEFEKNVWSFLKVNFEDDSRGKYLELLGYRKEDLGKKIALALNKVDGANVALKDSDQVAQSDGEESPAAEEQLLGEHIKEEKEESEFLPSSGGTFNISVSGDIDGLITQALLTGNFESAVDLCLHDNRMADAIILAIAGGQELLARTQKKYFAKSQSKITRLITAVVMKNWKEIVESCDLKNWREALAAVLTYAKPDEFSALCDLLGTRLENEGDSLLQTQACLCYICAGNVEKLVACWTKAQDGSHPLSLQDLIEKVVILRKAVQLTQAMDTSTVGVLLAAKMSQYANLLAAQGSIAAALAFLPDNTNQPNIMQLRDRLCRAQGEPVAGHESPKIPYEKQQLPKGRPGPVAGHHQMPRVQTQQYYPHGENPPPPGFIMHGNVNPNAAGQLPTSPGHMHTQVPPYPQPQPYQPAQPYPFGTGGSAMYRPQQPVAPPTSNAYPNTPYISSASSYTGQSQLYAAQHQASSPTSSPATSFPPPPSSGASFQHGGPGAPPSSSAYALPPGTTGTLPAASELPASQRTGPQNGWNDPPALNRVPKKKKMPENFMPPVPITSPIMNPLGDPQSQMLQQQPSAPVPLSSQSSFPQPHLPGGQPFHGVQQPLGQTGMPPSFSKPNIEGAPGAPIGNTFQHVQSLPTKKITKKPIPDEHLILKTTFEDLIQRCLSSATDPQTKRKLDDASKRLEFLYDKLREQTLSPTITSGLHNIARSIETRNYSEGLTMHTHIVSTSNFSETSAFMPVLKVVLTQANKLGV",binds,binding [3]: no binding
"Sec13 N-terminal WD40 repeat domain (1-302 amino acids) (domain or fragment, UniProt P55735 1-302) MVSVINTVDTSHEDMIHDAQMDYYGTRLATCSSDRSVKIFDVRNGGQILIADLRGHEGPVWQVAWAHPMYGNILASCSYDRKVIIWREENGTWEKSHEHAGHDSSVNSVCWAPHDYGLILACGSSDGAISLLTYTGEGQWEVKKINNAHTIGCNAVSWAPAVVPGSLIDHPSGQKPNYIKRFASGGCDNLIKLWKEEEDGQWKEEQKLEAHSDWVRDVAWAPSIGLPTSTIASCSQDGRVFIWTCDDASSNTWSPKLLHKFNDVVWHVSWSITANILAVSGGDNKVTLWKESVDGQWVCISD",binds,–
"Sec31A N-terminal WD40 repeat domain (1-430 amino acids) (domain or fragment, UniProt O94979 1-430) MKLKEVDRTAMQAWSPAQNHPIYLATGTSAQQLDATFSTNASLEIFELDLSDPSLDMKSCATFSSSHRYHKLIWGPYKMDSKGDVSGVLIAGGENGNIILYDPSKIIAGDKEVVIAQNDKHTGPVRALDVNIFQTNLVASGANESEIYIWDLNNFATPMTPGAKTQPPEDISCIAWNRQVQHILASASPSGRATVWDLRKNEPIIKVSDHSNRMHCSGLAWHPDVATQMVLASEDDRLPVIQMWDLRFASSPLRVLENHARGILAIAWSMADPELLLSCGKDAKILCSNPNTGEVLYELPTNTQWCFDIQWCPRNPAVLSAASFDGRISVYSIMGGSTDGLRQKQVDKLSSSFGNLDPFGTGQPLPPLQIPQQTAQHSIVLPLKKPPKWIRRPVGASFSFGGKLVTFENVRMPSHQGAEQQQQQHHVFIS",binds,–
"Sec31A (prey of the GST pull-down) (protein, UniProt O94979 1-1220) MKLKEVDRTAMQAWSPAQNHPIYLATGTSAQQLDATFSTNASLEIFELDLSDPSLDMKSCATFSSSHRYHKLIWGPYKMDSKGDVSGVLIAGGENGNIILYDPSKIIAGDKEVVIAQNDKHTGPVRALDVNIFQTNLVASGANESEIYIWDLNNFATPMTPGAKTQPPEDISCIAWNRQVQHILASASPSGRATVWDLRKNEPIIKVSDHSNRMHCSGLAWHPDVATQMVLASEDDRLPVIQMWDLRFASSPLRVLENHARGILAIAWSMADPELLLSCGKDAKILCSNPNTGEVLYELPTNTQWCFDIQWCPRNPAVLSAASFDGRISVYSIMGGSTDGLRQKQVDKLSSSFGNLDPFGTGQPLPPLQIPQQTAQHSIVLPLKKPPKWIRRPVGASFSFGGKLVTFENVRMPSHQGAEQQQQQHHVFISQVVTEKEFLSRSDQLQQAVQSQGFINYCQKKIDASQTEFEKNVWSFLKVNFEDDSRGKYLELLGYRKEDLGKKIALALNKVDGANVALKDSDQVAQSDGEESPAAEEQLLGEHIKEEKEESEFLPSSGGTFNISVSGDIDGLITQALLTGNFESAVDLCLHDNRMADAIILAIAGGQELLARTQKKYFAKSQSKITRLITAVVMKNWKEIVESCDLKNWREALAAVLTYAKPDEFSALCDLLGTRLENEGDSLLQTQACLCYICAGNVEKLVACWTKAQDGSHPLSLQDLIEKVVILRKAVQLTQAMDTSTVGVLLAAKMSQYANLLAAQGSIAAALAFLPDNTNQPNIMQLRDRLCRAQGEPVAGHESPKIPYEKQQLPKGRPGPVAGHHQMPRVQTQQYYPHGENPPPPGFIMHGNVNPNAAGQLPTSPGHMHTQVPPYPQPQPYQPAQPYPFGTGGSAMYRPQQPVAPPTSNAYPNTPYISSASSYTGQSQLYAAQHQASSPTSSPATSFPPPPSSGASFQHGGPGAPPSSSAYALPPGTTGTLPAASELPASQRTGPQNGWNDPPALNRVPKKKKMPENFMPPVPITSPIMNPLGDPQSQMLQQQPSAPVPLSSQSSFPQPHLPGGQPFHGVQQPLGQTGMPPSFSKPNIEGAPGAPIGNTFQHVQSLPTKKITKKPIPDEHLILKTTFEDLIQRCLSSATDPQTKRKLDDASKRLEFLYDKLREQTLSPTITSGLHNIARSIETRNYSEGLTMHTHIVSTSNFSETSAFMPVLKVVLTQANKLGV",–,binding [4]: binds
"SDVNKGQGSVSASVTEGQQNEQ (domain or fragment, UniProt P55735 301-322) [Sec13 C-terminal region (301-322 amino acids)]",no binding,–
"Sec31A intervening region (431-799 amino acids) (domain or fragment, UniProt O94979 431-799) QVVTEKEFLSRSDQLQQAVQSQGFINYCQKKIDASQTEFEKNVWSFLKVNFEDDSRGKYLELLGYRKEDLGKKIALALNKVDGANVALKDSDQVAQSDGEESPAAEEQLLGEHIKEEKEESEFLPSSGGTFNISVSGDIDGLITQALLTGNFESAVDLCLHDNRMADAIILAIAGGQELLARTQKKYFAKSQSKITRLITAVVMKNWKEIVESCDLKNWREALAAVLTYAKPDEFSALCDLLGTRLENEGDSLLQTQACLCYICAGNVEKLVACWTKAQDGSHPLSLQDLIEKVVILRKAVQLTQAMDTSTVGVLLAAKMSQYANLLAAQGSIAAALAFLPDNTNQPNIMQLRDRLCRAQGEPVAGHES",no binding,–
"Sec31A C-terminal proline-rich region (800-1220 amino acids) (domain or fragment, UniProt O94979 800-1220) PKIPYEKQQLPKGRPGPVAGHHQMPRVQTQQYYPHGENPPPPGFIMHGNVNPNAAGQLPTSPGHMHTQVPPYPQPQPYQPAQPYPFGTGGSAMYRPQQPVAPPTSNAYPNTPYISSASSYTGQSQLYAAQHQASSPTSSPATSFPPPPSSGASFQHGGPGAPPSSSAYALPPGTTGTLPAASELPASQRTGPQNGWNDPPALNRVPKKKKMPENFMPPVPITSPIMNPLGDPQSQMLQQQPSAPVPLSSQSSFPQPHLPGGQPFHGVQQPLGQTGMPPSFSKPNIEGAPGAPIGNTFQHVQSLPTKKITKKPIPDEHLILKTTFEDLIQRCLSSATDPQTKRKLDDASKRLEFLYDKLREQTLSPTITSGLHNIARSIETRNYSEGLTMHTHIVSTSNFSETSAFMPVLKVVLTQANKLGV",no binding,–
